Results on 90 compounds are retold here after PubChem BioAssay AID463173 (ICCB-Longwood Screening Facility, Harvard Medical School, 2010).

Hit rate of the full screen: of about 52,000 compounds, about 1,700 (3.3%) were called active. Cut-off read from the data, not from the text of the source: active = survival mostly below about 52% (no sharp cut-off); inactive = mostly above about 56%. Some of the results follow.

In this assay the test system is Wild type. As to the kind of experiment: growth inhibition of S. aureus wild type versus tarO mutant, primary screen, teichoic acid synthesis inhibitors, RN4220, OD600 (AID 463173). The settings on record: S. aureus RN4220 wild type/DeltatarO growth, OD600, 18 h, stronger effect = lower value, screened at 18.75 µg/mL (by protocol).
With `COc1ccc(S(=O)(=O)c2c(Nc3cccc(C)c3C)sc(C(=O)c3ccccc3)c2N)cc1`, the survival is inactive: 94%.
Under `COc1ccc(-c2nc(SCC(=O)NC(C)CCc3ccccc3)n[nH]2)cc1` (stereo not given) stands active: -1%; under `CCN(CC)C1=C(C(=O)c2ccccc2)NS(=O)(=O)c2ccccc21`, inactive: 103%; under `COC(=O)c1ccc(NC(=O)CSc2cn(CC(=O)N3CCCCC3)c3ccccc23)cc1`, inactive: 89%.
Turning to `CCN(c1ccccc1)S(=O)(=O)c1c(C)nc2scc(C)n2c1=O`, the survival is inactive: 74%.
The same measure for `COc1ccc(N2CCN(c3ncnc4c3cnn4-c3ccc(F)cc3)CC2)cc1`: inactive: 112%.
As for `CCOC(=O)c1c(C)oc2nc(C)nc(NCCc3ccc(OCC)c(OCC)c3)c12`, the survival was inactive: 73%.
Under `CCc1ccccc1NC(=O)CCCSc1nc(-c2ccco2)cc(C(F)(F)F)n1` stands inactive: 79%.
Under `COc1ccc(NC(=O)C2=CC(c3ccco3)=NS(=O)(=O)N2C)cc1OC` stands inactive: 88%.
Under `CCOCCc1nn2c(=O)cc(COC(=O)c3ccc(NC(=O)C4CCCCC4)cc3)nc2s1` stands inactive: 82%; under `CCN(c1ccccc1)S(=O)(=O)c1nnc(NC(=O)c2ccccc2OC)s1`, inactive: 71%; under `COc1ccccc1CNc1nc2ccc(C)cc2n2nnnc12`, active: -1%.
For the compound `Cc1nn(-c2ccccc2)c(OC(=O)c2ccccc2Br)c1S(=O)(=O)c1ccccc1`, the survival is inactive: 59%.
Under `Cc1cc(NC(=O)c2ccc3c(c2)N(Cc2cccc(Cl)c2)C(=O)c2ccccc2S3(=O)=O)ccc1Br` stands inactive: 111%.
Consider `O=C(CS(=O)(=O)c1cccc2nsnc12)N1CCN(c2ccccc2F)CC1`, for which the survival is inactive: 94%.
As to `O=C(Nc1ccc(Cl)cc1)C1CCC(CNS(=O)(=O)c2ccc(Br)s2)CC1` (stereo not given), the survival is inactive: 88%.
The same measure for `CC1=C(C(=O)Nc2ccccc2Cl)C(c2cccc(O)c2)n2ncnc2N1` (stereo not given): inactive: 130%.
With `O=C1CC(c2c(Cl)cccc2Cl)c2c(ccc3ccccc23)N1` (stereo not given), the survival was inactive: 73%.
Under `O=C(Nc1ccccc1C(F)(F)F)c1ncoc1-c1ccco1` stands inactive: 93%; under `COc1ccc(-c2cc(C(F)(F)F)nc(SCCC(=O)Nc3ccc(NC(C)=O)cc3)n2)cc1`, inactive: 79%; under `COc1cc(C2C(=O)N(C3CCCCC3)CC(=O)N2CCc2ccccc2)ccc1OC(C)C` (stereo not given), inactive: 89%.
Turning to `CCCCN(C)CCCNC(=O)C1CCN(S(=O)(=O)CCC)CC1`, the survival was inactive: 77%.
On to `COc1ccc(CNC(=O)c2cc(Nc3ccccc3C)nc3ccccc23)cc1`, for which the survival was inactive: 85%.
On to `CCN(CC)c1ccc(CNCCCSc2nnnn2C)cc1`, for which the survival was inactive: 89%.
Under `Cc1oc(-c2cccc(Cl)c2)nc1CN1CCC(C(=O)NC(C)c2ccccc2)CC1` (stereo not given) stands inactive: 88%; under `COc1ccc(Cl)cc1NC(=O)CSc1cn(CC(=O)N2CCCCC2)c2ccccc12`, inactive: 86%.
In the case of `CCOc1ccc(CN2C(=O)c3ccccc3Sc3ccc(C(=O)NCc4ccco4)cc32)cc1`, the survival is inactive: 89%.
With `Cc1oc2ncn(C)c(=O)c2c1C(=O)N1CCN(c2cccc(C(F)(F)F)c2)CC1`, the survival was inactive: 82%.
Under `COCCNc1nc2c(c(=O)n(C)c(=O)n2C)n1Cc1c(F)cccc1Cl` stands inactive: 64%; under `COc1ccc(C(=O)Nc2ccccc2C(=O)NCc2ccco2)cc1`, inactive: 107%.
The same measure for `CCc1ccc(NC(=O)CC2C(=O)NCCN2C(=O)c2ccc(F)cc2)cc1` (stereo not given): inactive: 90%; for `CCc1ccc(NC(=O)NCCc2c(C)nn(C)c2C)cc1`: inactive: 81%.
Under `COc1ccc(S(=O)(=O)c2c(Nc3ccccc3F)sc(C(=O)c3cccc(OC)c3)c2N)cc1` stands inactive: 113%.
On to `COc1ccccc1CNS(=O)(=O)Cc1ccccc1`, for which the survival is inactive: 121%.
The same measure for `Cc1cccc(NC(=O)CSc2nnc(NC(=O)Nc3ccccc3)s2)c1C`: inactive: 78%; for `CSc1ccc(C2C(C(=O)Nc3ccccc3)=C(C)Nc3nc4ccccc4n32)cc1` (stereo not given): inactive: 69%; for `COc1cccc(C2CC(=O)Nc3c2ccc(C)c3C)c1OC` (stereo not given): inactive: 87%.
The same measure for `CCOc1ccccc1CNC(=O)c1ccc(CS(=O)Cc2cccc(Cl)c2)o1` (stereo not given): inactive: 82%; for `CSc1ccc(CNC(=O)Cn2nc(N3CCN(c4ccccc4)CC3)ccc2=O)cc1`: inactive: 64%.
With `Cc1ccccc1CNC(=O)C(=O)NCC(c1ccco1)S(=O)(=O)c1cccs1` (stereo not given), the survival is inactive: 79%.
The same measure for `COc1cccc(NC(=O)CSc2nnc(-c3cccc(OC)c3)o2)c1`: inactive: 90%; for `Cc1ccc(NC(=O)CSc2ncc(-c3ccccc3)[nH]2)cc1`: inactive: 62%; for `CCOC(=O)c1c(C)[nH]c(C)c1S(=O)(=O)N1CCCC(C(=O)Nc2cc(C)ccc2C)C1` (stereo not given): inactive: 51%.
As for `CCC(=O)N1CCc2cc(CNC(=O)c3ccccc3C)ccc21`, the survival was inactive: 90%.
The same measure for `CCCCNC(=O)CSc1nc2nc(C)c(Cc3c(F)cccc3Cl)c(C)n2n1`: inactive: 59%; for `CCc1ccc(-n2c(=O)c3sc4ccccc4c3n(CC(=O)N(CC)Cc3ccccc3)c2=O)cc1`: inactive: 85%; for `O=C(Nc1ccc2nc(SCC(=O)N3CCc4ccccc43)sc2c1)c1ccccc1`: inactive: 82%.
Take `Cc1ccc2sc(-c3ccc(N)cc3)nc2c1`: the survival is inactive: 19%.
Regarding `Cc1ccc(-c2nnc(Nc3ccccc3O)c3ccccc23)cc1`, the survival was inactive: 86%.
Regarding `Cc1ccc(Cl)cc1N1CCN(C(=O)c2cnn(C)c2C2CCN(C(=O)OC(C)(C)C)CC2)CC1`, the survival is inactive: 74%.
With `O=C(Nc1cc2c(cc1C(=O)c1ccccc1Br)OCCO2)c1ccccc1`, the survival was inactive: 66%.
Turning to `CC(=O)c1ccc(NC(=O)COc2ccccc2-c2nc(-c3ccc(C)cc3)no2)cc1`, the survival is inactive: 84%.
The same measure for `O=C(NC1CC(=O)N(c2cccc(F)c2)C1)c1ccc2c(c1)OCO2` (stereo not given): inactive: 70%; for `CCc1ccc(N(CC(=O)N2CCCCC2)S(C)(=O)=O)cc1`: inactive: 111%; for `Cc1ccc(OCC(=O)Nc2ccccc2C(=O)OCc2cc(=O)n3ccsc3n2)cc1`: inactive: 72%.
The same measure for `O=C(C1CCC(Cn2c(=O)c3sccc3n(Cc3ccccc3)c2=O)CC1)N1CCOCC1` (stereo not given): inactive: 95%.
Turning to `O=C(Nc1ccccc1F)c1ccc(Cn2nc(N3CCN(c4ccccc4)CC3)ccc2=O)o1`, the survival is inactive: 75%.
The same measure for `COc1cc(OC)c(NC(=O)N2CCc3c([nH]c4ccccc34)C2c2ccccc2F)cc1Cl` (stereo not given): inactive: 77%; for `Cc1cc(C)c(NC(=O)CN2C(=O)c3cccnc3Sc3ccccc32)c(C)c1`: inactive: 84%.
The same measure for `O=C(CCC(=O)N1CC2CCCN2c2ccccc21)NCc1ccc(F)cc1` (stereo not given): active: -2%.
Under `CCc1cc(C(=O)Nc2c(C)nn(Cc3ccccc3Cl)c2C)no1` stands inactive: 64%; under `O=S(=O)(c1ccc(F)cc1)N(CC(O)Cn1c2ccccc2c2ccccc21)c1ccccc1` (stereo not given), inactive: 63%.
On to `COc1ccc(C(=O)NCC(c2ccc3c(c2)OCO3)N2CCN(C)CC2)cc1` (stereo not given), for which the survival is inactive: 60%.
Under `O=C(c1ccco1)N1CCCN(C(=O)c2ccco2)CC1` stands inactive: 102%; under `CCOc1ccc(CCNC(=O)c2nnc(Cc3ccc(Cl)cc3Cl)o2)cc1OCC`, inactive: 88%; under `COc1cc(OC)c(N(C)C(=O)c2c(C)oc3ncnc(N4CCCCC4)c23)cc1Cl`, inactive: 64%.
Under `CCOc1ccc2nc(N3CCN(C(=O)c4ccco4)CC3)sc2c1` stands inactive: 67%.
Under `CC(/C=N/NC(=O)c1ccco1)=C\c1ccco1` stands inactive: 122%.
For `Cc1ccc2c(=O)cc(C(=O)NCc3ccccc3)oc2c1`, the survival was inactive: 82%.
Consider `COc1ccc(CNC(=O)C2CCCN(S(=O)(=O)c3ccc4c(ccn4C)c3)C2)c(OC)c1` (stereo not given), for which the survival was inactive: 19%.
For the compound `CCOC(=O)c1cc2c(=O)n3ccccc3nc2n(CC2CCCO2)c1=NC(=O)c1ccccc1C` (stereo not given), the survival was inactive: 60%.
The same measure for `CCn1cc(/C=C(\NC(=O)c2ccc(C)cc2)C(=O)NCCCn2ccnc2)c2ccccc21`: inactive: 96%.
With `COc1ccc(NC(C)=O)cc1NC(=O)C1(c2cccs2)CCOCC1`, the survival is inactive: 71%.
As to `Cc1cc(C)cc(-n2c(SCC(=O)N3CCC(C)CC3)nc3c([nH]c4ccccc43)c2=O)c1`, the survival is active: -1%.
Under `Cc1ccc(C)c(N2CCN(C(=O)Cc3c(C(=O)O)c(C)cn3C)CC2)c1` stands inactive: 75%; under `CCc1ccc(-n2nc(CO)c(C(=O)NCCc3ccccc3)n2)cc1`, inactive: 87%; under `O=C(CSc1nc2c([nH]c3ccccc32)c(=O)n1-c1ccc(F)cc1)N1CCc2ccccc21`, inactive: 87%.
Under `COc1cccc(C(=O)N2CCCCC2CCN2CCCCC2)c1` (stereo not given) stands inactive: 94%.
Under `CC1CCN(S(=O)(=O)c2ccccc2)CC1` stands inactive: 108%; under `Cc1oc(-c2ccccc2F)nc1CS(=O)CC(=O)NC(C)C` (stereo not given), inactive: 82%.
Turning to `Cc1cccc(Cn2c(CNS(=O)(=O)c3ccc(C(C)C)cc3)nc3cccnc32)c1`, the survival was inactive: 78%.
The same measure for `N#Cc1c(NC(=O)c2cccs2)sc2c1CCCCC2`: inactive: 96%; for `COc1ccc(OC)c(NC(=O)c2cccc3c2C(=O)N(C2CCCCC2)C3)c1`: inactive: 58%; for `CCOc1ccccc1NC(=O)c1c2c(nc3ccccc13)C(=O)N(C1CCCCC1)C2`: inactive: 47%.
Under `COc1ccc(-c2nc3n(n2)C(c2ccccc2OC)C(C(=O)Nc2cccnc2)=C(C)N3)cc1` (stereo not given) stands inactive: 76%; under `O=C(C1CCC(CNS(=O)(=O)c2ccc(Br)s2)CC1)N1CCN(c2ccc(F)cc2)CC1` (stereo not given), inactive: 91%.
On to `CCc1ccccc1NC(=O)CC1NCCNC1=O` (stereo not given), for which the survival is inactive: 87%.
For the compound `CCOc1ccc(C(=O)Nc2ccc3oc(-c4ccc(C)cc4C)nc3c2)cc1Br`, the survival is inactive: 67%.
The same measure for `C=CCNC(=O)C1CCN(S(=O)(=O)c2cccc(C(F)(F)F)c2)CC1`: inactive: 100%; for `CCOc1ccc(NC(=O)Cn2c(=O)n(CCCCC(=O)NCCc3ccc(Cl)cc3)c(=O)c3ccccc32)cc1`: inactive: 89%.
